Key:
vitamin D receptor (VDR) = biological target: T1, vitamin D receptor (VDR) (Homo sapiens, UniProt P11473); assay: Vitamin D-inducible growth hormone production in COS-1 cells co-transfected with pSG5-hVDR1/3 and p(CT4)4TKGH; details: for Total GH Production: averages of duplicate determinations
T1 sequence (P11473 1-427): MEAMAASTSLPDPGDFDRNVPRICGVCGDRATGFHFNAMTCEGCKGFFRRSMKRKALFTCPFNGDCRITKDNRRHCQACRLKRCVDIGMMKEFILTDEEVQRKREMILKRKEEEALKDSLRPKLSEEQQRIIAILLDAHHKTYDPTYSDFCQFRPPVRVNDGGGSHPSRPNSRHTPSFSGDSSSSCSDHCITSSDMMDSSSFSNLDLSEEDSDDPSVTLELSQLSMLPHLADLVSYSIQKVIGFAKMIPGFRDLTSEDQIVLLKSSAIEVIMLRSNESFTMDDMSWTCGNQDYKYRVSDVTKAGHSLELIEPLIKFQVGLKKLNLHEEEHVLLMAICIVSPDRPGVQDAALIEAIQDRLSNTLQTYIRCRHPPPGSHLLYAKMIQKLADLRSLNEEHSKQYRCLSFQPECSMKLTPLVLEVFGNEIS

[1] = tested on: human MCF-7 cancer cell lines; details: for overall interaction with 1α,24-dihydroxyvitamin D2 in inhibiting growth of human breast cancer cells: summary statement of the description

SMILES: C=C1/C(=C\C=C2/CCC[C@]3(C)[C@@H]([C@H](C)/C=C/[C@](C)(O)C(C)C)CC[C@@H]23)C[C@@H](O)C[C@@H]1O [1α,24(R)—(OH)2D2, 1α,24(R)-dihydroxy-vitamin D2]
- activity in GH reporter system compared with 25-OH-D3 (vitamin D receptor (VDR)): significantly more activity
- Total GH Production (vitamin D receptor (VDR); molar concentration 1 × 10^−7): 1300 ng/mL
- Total GH Production (vitamin D receptor (VDR); molar concentration 1 × 10^−8): 1100 ng/mL
- Net vitamin D inducible GH-production (vitamin D receptor (VDR); molar concentration 1 × 10^−9): 36 ng/mL
- Total GH Production (vitamin D receptor (VDR); molar concentration 1 × 10^−9): 80 ng/mL

SMILES: C=C1/C(=C\C=C2/CCC[C@]3(C)[C@@H]([C@H](C)/C=C/[C@@](C)(O)C(C)C)CC[C@@H]23)C[C@@H](O)C[C@@H]1O [1α,24(S)—(OH)2D2, 1α,24(S)-dihydroxyvitamin D2]
- activity in GH reporter system compared with 1α,25-(OH)2D3 (vitamin D receptor (VDR)): nearly the same activity
- activity in GH reporter system compared with 25-OH-D3 (vitamin D receptor (VDR)): significantly more activity

SMILES: O=c1[nH]cc(F)c(=O)[nH]1 [5-fluorouracil]
- overall interaction with 1α,24-dihydroxyvitamin D2 in inhibiting growth of human breast cancer cells [1]: additively inhibit

SMILES: C=C1CC[C@H](O)C/C1=C/C=C1\CCC[C@]2(C)[C@@H]([C@H](C)CCCC(C)(C)O)CC[C@@H]12 [25-OH—D3, reference compound]
- Total GH Production (vitamin D receptor (VDR); molar concentration 1 × 10^−6): 1100 ng/mL

SMILES: CS(=O)(=O)OCCCCOS(C)(=O)=O [busulfan]
- interaction with 1,24(OH)2D2, growth inhibition (FIG. 20) ([1]; busulfan 100 μM with 0.1 nM 1,24(OH)2D2): mild synergistic growth inhibition
- overall interaction with 1α,24-dihydroxyvitamin D2 in inhibiting growth of human breast cancer cells [1]: additively inhibit

SMILES: N.N.O=C([O-])C1(C(=O)[O-])CCC1.[Pt+2] [carboplatin]
- overall interaction with 1α,24-dihydroxyvitamin D2 in inhibiting growth of human breast cancer cells [1]: additively inhibit

SMILES: O=C(O)CCCc1ccc(N(CCCl)CCCl)cc1 [chlorambucil]
- interaction with 1,24(OH)2D2, growth inhibition (FIG. 17) ([1]; chlorambucil in various concentrations with 0.1 nM 1α,24-dihydroxyvitamin D2): antagonistic to mild additive growth inhibition

SMILES: N.N.[Cl][Pt][Cl] [cisplatin]
- overall interaction with 1α,24-dihydroxyvitamin D2 in inhibiting growth of human breast cancer cells [1]: synergistically inhibits

SMILES: COc1cccc2c1C(=O)c1c(O)c3c(c(O)c1C2=O)C[C@@](O)(C(=O)CO)C[C@@H]3O[C@H]1C[C@H](N)[C@H](O)[C@H](C)O1 [doxorubicin]
- interaction with 1,24(OH)2D2, growth inhibition (FIG. 9) ([1]; doxorubicin 0.001 μM, 0.01 μM, 0.1 μM, 1 μM, 10 μM and 100 μM with 1 nM 1,24(OH)2D2): synergistic growth inhibition
- interaction with 1,24(OH)2D2, growth inhibition (FIG. 10) ([1]; doxorubicin 0.01 μM, 0.01 μM, 1 μM, 10 μM and 100 μM with 10 nM 1,24(OH)2D2): synergistic growth inhibition
- interaction with 1,24(OH)2D2, growth inhibition (FIG. 7) ([1]; doxorubicin 0.01 μM, 0.1 μM, 1 μM, 10 μM and 100 μM with 0.01 nM 1,24(OH)2D2): synergistic growth inhibition
- interaction with 1,24(OH)2D2, growth inhibition (FIG. 8) ([1]; doxorubicin 1 μM, 10 μM and 100 μM with 0.1 nM 1,24(OH)2D2): synergistic growth inhibition
- interaction with 1,24(OH)2D2, isobologram (FIG. 6) ([1]; doxorubicin about 0 to 0.15 μM with 1,24(OH)2D2 of various concentrations): synergistic effect
- overall interaction with 1α,24-dihydroxyvitamin D2 in inhibiting growth of human breast cancer cells [1]: synergistically inhibits

SMILES: COc1cc([C@@H]2c3cc4c(cc3[C@@H](O[C@@H]3O[C@@H]5CO[C@@H](C)O[C@H]5[C@H](O)[C@H]3O)[C@H]3COC(=O)[C@H]23)OCO4)cc(OC)c1O [etoposide]
- interaction with 1,24(OH)2D2, isobologram (FIG. 3) [1]: additive or mild synergistic effect
- interaction with 1,24(OH)2D2, growth inhibition (FIG. 4) ([1]; etoposide 0.1 μM, 1 μM, 10 μM and 100 μM with 0.1 nM 1,24(OH)2D2): additive to mild synergistic growth inhibition
- overall interaction with 1α,24-dihydroxyvitamin D2 in inhibiting growth of human breast cancer cells [1]: additively inhibit

SMILES: CC(=O)O[C@H]1C(=O)[C@@]2(C)[C@H]([C@H](OC(=O)c3ccccc3)[C@]3(O)C[C@H](OC(=O)[C@H](O)[C@@H](NC(=O)c4ccccc4)c4ccccc4)C(C)=C1C3(C)C)[C@]1(OC(C)=O)CO[C@@H]1C[C@@H]2O [paclitaxel]
- overall interaction with 1α,24-dihydroxyvitamin D2 in inhibiting growth of human breast cancer cells [1]: synergistically inhibits

SMILES: CC/C(=C(\c1ccccc1)c1ccc(OCCN(C)C)cc1)c1ccccc1 [tamoxifen]
- overall interaction with 1α,24-dihydroxyvitamin D2 in inhibiting growth of human breast cancer cells [1]: additively inhibit
- interaction with 1,24(OH)2D2, growth inhibition (FIG. 13) ([1]; tamoxifen 10 μM and 100 μM with 0.01 nM 1,24(OH)2D2): additive to mild synergistic growth inhibition
- interaction with 1,24(OH)2D2, growth inhibition (FIG. 14) ([1]; tamoxifen 10 μM and 100 μM with 0.1 nM 1,24(OH)2D2): additive to mild synergistic growth inhibition

From patent US7094775B2, “Method of treating breast cancer using a combination of vitamin D analogues and other agents” (priority 2004, dated 2006)
